PubChem BioAssay AID504333 (National Center for Advancing Translational Sciences (NCATS), 2011)
Hit rate of the full screen: of about 360,000 compounds, about 16,000 (4.4%) were called active. This list was built around the results that the source calls inconclusive (neither active nor inactive); the mix of calls is not that of the screen. The call rests on the fitted dose curve; in most records, active means well fitted inhibition curve with a large enough effect; inconclusive means small, poorly fitted or top-dose-only effect; inactive means no such curve, though single readings can be large or run the other way. Potencies beside an inconclusive call are fits to weak or partial responses and may not hold up.

biological target: Bromodomain adjacent to zinc finger domain protein 2B (Homo sapiens) (UniProt Q9UIF8); test: qHTS Assay for Inhibitors of BAZ2B; conditions: AlphaScreen BAZ2B-H3K14Ac peptide displacement; series mostly up to 114 µM; further: nearly all actives have a fitted effect of over 60% in size
How it was run: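 AlphaScreen displacement: compounds (up to 110uM) incubated 30 min at room temperature with a preformed 50 nM BAZ2B/50 nM biotinylated H3K14Ac peptide complex in PBS pH 7.4 with Tween-20. Donor and acceptor beads at 10 ug/mL final added, 20 min light-protected before reading.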
Potency means the concentration at half of the fitted maximal effect; tags describe the fitted curve by direction and shape.

Sequence of UniProt Q9UIF8 (Q9UIF8 whole entry, looked up, the tested form may be a part): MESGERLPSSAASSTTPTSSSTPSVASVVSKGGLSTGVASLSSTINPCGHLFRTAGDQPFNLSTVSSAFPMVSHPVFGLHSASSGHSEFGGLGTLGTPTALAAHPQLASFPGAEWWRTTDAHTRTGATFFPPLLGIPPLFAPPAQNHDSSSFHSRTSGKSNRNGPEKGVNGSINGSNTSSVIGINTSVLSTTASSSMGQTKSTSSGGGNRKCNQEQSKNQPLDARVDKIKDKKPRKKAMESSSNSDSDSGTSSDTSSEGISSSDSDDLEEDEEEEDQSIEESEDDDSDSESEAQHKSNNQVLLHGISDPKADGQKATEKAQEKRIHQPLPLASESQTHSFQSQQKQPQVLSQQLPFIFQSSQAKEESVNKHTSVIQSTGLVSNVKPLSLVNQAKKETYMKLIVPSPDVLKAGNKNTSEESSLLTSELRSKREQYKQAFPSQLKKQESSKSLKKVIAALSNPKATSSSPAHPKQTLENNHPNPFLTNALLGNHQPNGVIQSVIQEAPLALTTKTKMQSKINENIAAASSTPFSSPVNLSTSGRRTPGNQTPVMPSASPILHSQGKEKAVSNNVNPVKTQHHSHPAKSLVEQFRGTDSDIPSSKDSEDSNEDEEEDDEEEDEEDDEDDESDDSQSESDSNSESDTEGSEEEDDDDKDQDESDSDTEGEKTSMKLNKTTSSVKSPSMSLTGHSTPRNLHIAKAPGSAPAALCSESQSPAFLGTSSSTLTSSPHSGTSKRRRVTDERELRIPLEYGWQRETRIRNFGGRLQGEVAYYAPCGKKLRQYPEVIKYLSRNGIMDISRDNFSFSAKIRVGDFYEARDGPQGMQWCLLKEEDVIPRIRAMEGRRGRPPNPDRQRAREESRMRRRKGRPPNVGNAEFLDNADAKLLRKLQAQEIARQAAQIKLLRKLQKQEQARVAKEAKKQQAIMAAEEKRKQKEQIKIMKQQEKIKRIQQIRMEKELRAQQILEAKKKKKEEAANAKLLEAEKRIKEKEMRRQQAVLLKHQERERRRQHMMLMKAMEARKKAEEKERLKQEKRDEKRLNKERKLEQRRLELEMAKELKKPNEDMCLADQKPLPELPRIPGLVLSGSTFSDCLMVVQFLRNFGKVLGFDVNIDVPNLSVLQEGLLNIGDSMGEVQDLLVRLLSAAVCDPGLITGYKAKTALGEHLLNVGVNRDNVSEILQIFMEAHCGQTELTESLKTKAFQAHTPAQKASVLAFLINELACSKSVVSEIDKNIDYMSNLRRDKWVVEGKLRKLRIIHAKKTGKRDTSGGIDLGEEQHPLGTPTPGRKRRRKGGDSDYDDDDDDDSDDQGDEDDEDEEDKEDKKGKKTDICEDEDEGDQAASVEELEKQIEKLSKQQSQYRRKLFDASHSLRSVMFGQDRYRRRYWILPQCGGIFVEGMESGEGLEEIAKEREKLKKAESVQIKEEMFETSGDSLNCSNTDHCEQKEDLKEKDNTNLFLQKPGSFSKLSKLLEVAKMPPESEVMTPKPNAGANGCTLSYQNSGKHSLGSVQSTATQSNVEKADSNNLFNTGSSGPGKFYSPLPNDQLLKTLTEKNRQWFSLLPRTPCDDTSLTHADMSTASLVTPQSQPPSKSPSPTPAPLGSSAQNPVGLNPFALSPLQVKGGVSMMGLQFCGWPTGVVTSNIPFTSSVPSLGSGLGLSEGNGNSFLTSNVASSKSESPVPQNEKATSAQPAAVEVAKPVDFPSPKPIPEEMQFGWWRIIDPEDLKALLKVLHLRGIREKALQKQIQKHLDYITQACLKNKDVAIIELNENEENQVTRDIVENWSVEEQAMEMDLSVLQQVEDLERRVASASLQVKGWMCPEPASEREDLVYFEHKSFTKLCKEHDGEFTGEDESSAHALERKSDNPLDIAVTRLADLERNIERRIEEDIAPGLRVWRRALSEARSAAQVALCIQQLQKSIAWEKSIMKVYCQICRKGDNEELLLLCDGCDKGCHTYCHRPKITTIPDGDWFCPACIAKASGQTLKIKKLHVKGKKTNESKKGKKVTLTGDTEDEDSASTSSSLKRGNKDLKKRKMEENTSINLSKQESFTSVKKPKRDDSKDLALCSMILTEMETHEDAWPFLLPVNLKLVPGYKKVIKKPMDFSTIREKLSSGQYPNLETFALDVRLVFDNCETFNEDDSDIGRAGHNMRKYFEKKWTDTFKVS

Row | SMILES | Potency
1 | CCC(C)NC(=O)C1CCC(CNS(=O)(=O)c2ccccc2)CC1 (stereo not drawn) | inactive
2 | CCC1Nc2ncnc(N3CCN(c4ccccc4)CC3)c2N(Cc2ccc(OC)cc2)C1=O (stereo not drawn) | inconclusive: 56.2 µM [inhibitor, partial curve]
3 | Cc1ccc(/C=C/S(=O)(=O)NCC(=O)O)cc1 | inactive
4 | COc1ccc(OCCNS(=O)(=O)c2cccc([N+](=O)[O-])c2)cc1 | inconclusive: 8.91 µM [inhibitor, full curve]
5 | COc1ccc(C2c3[nH]c4ccccc4c3CCN2C(=O)Cc2nonc2C)c(F)c1 (stereo not drawn) | inconclusive: 79.4 µM [inhibitor, single point]
6 | CCCCC(=O)NC(c1ccc(N(CC)CC)cc1)c1ccc2cccnc2c1O (stereo not drawn) | active: 44.7 µM
7 | Oc1ccc(/C=N/N2CCN(C3c4ccccc4-c4ccccc43)CC2)c(O)c1 | inconclusive: 50.1 µM [inhibitor, partial curve]
8 | Cc1[nH][nH]c(=O)c1N=Nc1ccc(F)cc1 | inconclusive: 56.2 µM [inhibitor, partial curve]
9 | Cc1cc(C(=O)C(=O)O)c(C)n1-c1ccc(Cl)c(Cl)c1 | inconclusive: 56.2 µM [inhibitor, partial curve]
10 | C/C(=N\NC(=O)c1nnn(-c2nonc2N)c1CN(C)c1ccccc1)c1ccccn1 | active: 8.91 µM
11 | Oc1c(/C=N/c2ccccn2)sc2ccccc12 | active: 39.8 µM
12 | COc1cc(/C=C/C(=O)c2ccccc2O)cc(OC)c1OC | active: 56.2 µM
13 | CCc1ccccc1NC(=O)C1CCN(S(=O)(=O)c2ccc3[nH]c(=O)ccc3c2)CC1 | inactive
14 | C=C(C)CC1Nc2ccccc2NC1CC(=C)C (stereo not drawn) | active: 50.1 µM
15 | COc1ccc(N2CCN(c3nc(Nc4ccc(C)c(F)c4)nc(N4CCCC4)n3)CC2)cc1 | active: 7.94 µM
16 | O=C(CC1C(=O)NCCN1Cc1ccc(-c2ccccc2)cc1)NCc1ccccc1 (stereo not drawn) | inconclusive: 1 µM [inhibitor, full curve, poor fit]
17 | O=C(NC(=O)c1ccc(Cl)cc1)Nc1ccc(-c2cnco2)cc1 | inactive
18 | COc1cc(/C=N/NC(=O)c2ccncc2)ccc1OCCN1CCCCC1 | inactive
19 | O=C1c2cccnc2C(=O)N1c1ccccc1-c1ccccc1 | inconclusive: 89.1 µM [inhibitor, single point]
20 | COc1ccc(C(=O)Nc2ccccc2C(=O)N/N=C/c2ccccn2)cc1OC | inconclusive: 89.1 µM [inhibitor, single point]
21 | COc1cccc(CC(NC(C)=O)C(=O)NC2CCN(C(=O)c3ccc(Cl)cc3)CC2)c1 (stereo not drawn) | inactive
22 | Cc1ccc(NC(=O)C2CCN(C(=O)[C@@H]3Cc4ccccc4CN3)CC2)c(C)c1 | inactive
23 | CCOC(=O)c1cccc(NC(=O)c2ccc3nc(Cc4ccccc4)oc3c2)c1 | inactive
24 | COc1ccc(CN2CCc3ccccc3C2)c(OC)c1 | inconclusive: 50.1 µM [inhibitor, partial curve]
25 | COc1cc(/C=N/NC(=O)CCN2CCN(C(c3ccccc3)c3ccccc3)CC2)ccc1O | inconclusive: 89.1 µM [inhibitor, single point]

Row | SMILES | Potency
26 | COc1ccc(/C=C2\SC(=O)N(CC(=O)NCCCn3ccnc3)C2=O)cc1 | inconclusive: 25.1 µM [inhibitor, partial curve]
27 | CCOC(=O)c1c(C)[nH]c(C2=NNC(=Nc3ccccc3OC)SC2)c1C | inconclusive: 44.7 µM [inhibitor, partial curve]
28 | COc1ccc(OC)c(Nc2nc(-c3c(C)nc4ncccn34)cs2)c1 | inconclusive: 50.1 µM [inhibitor, partial curve]
29 | CCCCCc1cc(=O)oc2c(C(CCN3CCCC(C)C3)c3ccc(N(C)C)cc3)c(OC)cc(OC)c12 (stereo not drawn) | active: 11.2 µM
30 | CN(C)c1ccc(C=C2C(=O)OC3(CCCC3)OC2=O)cc1 | inconclusive: 17.8 µM [inhibitor, full curve, poor fit]
31 | COc1ccc2nc(C)cc(N3CCN(c4ccccc4)CC3)c2c1 | inconclusive: 56.2 µM [inhibitor, partial curve, poor fit]
32 | CCC1=[N+](CC(=O)c2ccc(Br)cc2)CCn2c(C)ccc21 | inactive
33 | Nc1c(C(=O)c2ccc(F)cc2)sc(Nc2ccccc2F)c1S(=O)(=O)c1ccc(Br)cc1 | inconclusive: 56.2 µM [inhibitor, partial curve, poor fit]
34 | CCC(CC)COC(=O)C(C#N)c1nc2ccccc2nc1N1CCN(CC)CC1 (stereo not drawn) | active: 35.5 µM
35 | COCCCNCCCCOc1ccc(C)cc1[N+](=O)[O-] | inconclusive: 79.4 µM [inhibitor, partial curve]
36 | COc1ccc(C(=O)NCC(=O)N/N=C/C=C/c2ccccc2)cc1OC | inactive
37 | O=C(Nc1ccc(F)cc1F)c1ccc(-n2cccn2)c([N+](=O)[O-])c1 | inconclusive: 89.1 µM [inhibitor, single point]
38 | C=CC[N+](C)(C)C/C(Cl)=C(\Cl)c1ccccc1 | inactive
39 | CCCN1C2=C(C(=O)CC(C)(C)C2)C(c2ccc(F)cc2)C2=C1c1ccccc1C2=O (stereo not drawn) | inconclusive: 8.91 µM [inhibitor, full curve]
40 | CCn1c(SCc2cccc(C(=O)O)c2)nnc1-c1ccc(Cl)cc1 | inactive
41 | Cn1c(=O)n(C/C=C/c2ccccc2)c(=O)c2c1nc1n2CCN1c1ccccc1 | inactive
42 | CS(=O)(=O)N1Cc2ccccc2CC1C(=O)OCC(=O)Nc1ccc2ccccc2c1 (stereo not drawn) | inconclusive: 3.16 µM [inhibitor, full curve]
43 | CCCCOc1ccc(CNC(=O)C2COc3ccc(OC)cc3C2)cc1 (stereo not drawn) | inactive
44 | O=C(c1ccc(Cl)cc1)C1C2C(=O)N(c3ccccc3)C(=O)C2C2CCCN21 (stereo not drawn) | inconclusive: 100 µM [inhibitor, single point]
45 | O=C(NC1CCCCC1)C1CCCN(S(=O)(=O)c2ccc(Br)s2)C1 (stereo not drawn) | inactive
46 | O=[N+]([O-])c1cc(C(F)(F)F)ccc1NCCOc1ccccc1 | inconclusive: 17.8 µM [inhibitor, partial curve, poor fit]
47 | CCN(CC)S(=O)(=O)c1cc(NC(=O)COC(=O)c2ccc(NC(=O)CC#N)cc2)ccc1C | inactive
48 | COc1ccc(OC)c(-c2csc(-c3c(N)c(C(=O)c4ccccc4)n4ccccc34)n2)c1 | inactive
49 | CCOC(=O)C(=NC(C)(C)C)NNc1cc(Cl)ccc1Cl | inconclusive: 50.1 µM [inhibitor, partial curve]
50 | Cc1nc2ccccc2c2c1C(=O)N(c1ccc(C(=O)O)cc1)C2=O | inconclusive: 89.1 µM [inhibitor, single point]

Row | SMILES | Potency
51 | Oc1ccccc1-c1nnc2n1CCCCC2 | inactive
52 | COC(=O)c1cccc(NC(=O)CCNC(=O)c2ccco2)c1 | inactive
53 | S=C(NCCN1CCOCC1)N1CCN(c2cccc(Cl)c2)CC1 | active: 28.2 µM
54 | COc1ccc2oc(=O)c(-c3csc(Nc4ccc(O)cc4)n3)cc2c1 | inconclusive: 79.4 µM [inhibitor, single point]
55 | Cc1cc(C)c(C(=O)COC(=O)c2cc([N+](=O)[O-])ccc2NCCO)cc1C | inconclusive: 70.8 µM [inhibitor, single point]
56 | O=C(Nc1ccon1)c1ccccc1Cl | inactive
57 | CC[n+]1c(/C=C/c2ccc(OC)c(OC)c2)ccc2ccccc21 | inconclusive: 89.1 µM [inhibitor, single point]
58 | Cn1c(=O)oc2cc(S(=O)(=O)Nc3ccccc3O)ccc21 | inconclusive: 79.4 µM [inhibitor, partial curve]
59 | O=C(O)C1C2C=CC(C2)C1C(=O)NCc1ccco1 (stereo not drawn) | inconclusive: 79.4 µM [inhibitor, single point]
60 | Cc1nc2c(-c3ccccc3)c(C)nn2c(C)c1CCC(=O)NCc1ccc(F)cc1 | inactive
61 | COC(=O)c1scc(-c2ccc(C)cc2)c1S(=O)(=O)Nc1ccc(N(C)C)cc1 | active: 8.91 µM
62 | CC(C)c1ccc(OCC(=O)Nc2cccc(C(=O)Nc3ccccc3C(=O)O)c2)cc1 | inconclusive: 79.4 µM [inhibitor, single point]
63 | CCOC(=O)c1ccccc1N1C(=O)C2Sc3[nH]c(=O)sc3C(/C=C/c3ccccc3)C2C1=O (stereo not drawn) | inconclusive: 22.4 µM [inhibitor, partial curve]
64 | Cc1cc(C(=O)CSc2nnc(NCc3ccccc3)s2)c(C)n1C | inconclusive: 50.1 µM [inhibitor, partial curve]
65 | COCCCNCCCCOc1ccc(Br)cc1C | inconclusive: 89.1 µM [inhibitor, single point]
66 | N#C/C(=C1\C(=O)Nc2c(Cl)cc(Cl)cc21)c1nnc2n1CCCCC2 | inconclusive: 79.4 µM [inhibitor, single point]
67 | Cc1ccc(S(=O)(=O)/C(C#N)=C/c2c(N3CCN(C)CC3)nc3c(C)cccn3c2=O)cc1 | inconclusive: 39.8 µM [inhibitor, partial curve]
68 | COc1ccccc1N1CCN(C(CNC(=O)C(=O)NCc2ccc(C)cc2)c2cccnc2)CC1 (stereo not drawn) | inactive
69 | CCOC(=O)c1nn(-c2ccc(C)cc2)c(=O)c2c(N)scc12 | inconclusive: 89.1 µM [inhibitor, single point]
70 | O=C(O)c1ccc2c(c1)C(=O)N([C@H](Cc1ccc([N+](=O)[O-])cc1)C(=O)O)C2=O | inconclusive: 89.1 µM [inhibitor, single point]
71 | O=C(c1cc2ccccc2cc1O)N1CCN(c2ccccc2O)CC1 | inactive
72 | c1ccc(-c2cncn2-c2ccccc2)cc1 | active: 50.1 µM
73 | CN(C)c1ccc(-n2c(CCC(=O)O)ccc2-c2ccccc2)cc1 | active: 28.2 µM
